Reference: the supplement of paper PMC12217912
The other results are listed elsewhere or left out. Sequences were assembled here from the parent chain. Values near 0.05 are background.

B1: TEV protease; numbered along this chain (parent)
chain: MGESLFKGPRDYNPISSSICHLTNESDGHTTSLYGIGFGPFIITNKHLFRRNNGTLVVQSLHGVFKVKDTTTLQQHLVDGRDMIIIRMPKDFPPFPQKLKFREPQREERICLVTTNFQTKSMSSMVSDTSCTFPSGDGIFWKHWIQTKDGQCGSPLVSTRDGFIVGIHSASNFTNTNNYFTSVPKNFMELLTNQEAQQWVSGWRLNADSVLWGGHKVFMVKPEEPFQPVKEATQL

Variants of: B1
Assay: raw area under fraction-flipped curve 0-4 h after induction (AUC4h, not background-subtracted), DNA-recorder readout of cleavage of the substrate (dimensionless); higher = more cleavage of the substrate by the protease variant
Settings: temperature: 34 °C; time window: 0-4 h after rhamnose induction
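Further: Bxb1 expression induced with 0.2% (w/v) L-rhamnose at OD600 near 0.5, cultures sampled hourly, flipped fraction per protease–substrate barcode pair counted by paired-end Illumina sequencing.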

Variant	area with substrate ENCYFQS	area with substrate ENDYFQS	area with substrate ENEYFQS	area with substrate ENGYFQS	area with substrate ENMYFQS	area with substrate ENNYFQS	area with substrate ENQYFQS	area with substrate ENTYFQS	area with substrate ENVYFQS	area with substrate ENPYFQS
MGESLFKGPRDYNPISSSICHLTNESDGHTTSLYGIGFGPFIITNKHLFRRNNGTLVVQSLHGVFKVKDTTTLQQHLVDGRDMIIIRMPKDFPPFPQKLKFREPQREERICLVTTNFQTKSMSSMVSDTSCTFPSGDGIFWKHWIQTKDGQCGSPLVRTRDGFIVGIHSASNFTNTNNYFTSVPKNFMELLTNQEAQQWVSGWRLNADSVLWGGHKVFMVKPEEPFQPVKEATQL [S158R]	0.0692	0.0404	0.0528	0.0587	0.0605	0.0294	0.048	0.0552	0.0465	–
MGESLFKGPRDYNPISSSICHLTNESDGHTTSLYGIGFGPFIITNKHLFRRNNGTLVVQSLHGVFKVKDTTTLQQHLVDGRDMIIIRMPKDFPPFPQKLKFREPQREERICLVTTNFQTKSMSSMVSDTSCTFPSGDGIFWKHWIQTKDGQCGSPLVSARDGFIVGIHSASNFTNTNNYFTSVPKNFMELLTNQEAQQWVSGWRLNADSVLWGGHKVFMVKPEEPFQPVKEATQL [T159A]	0.0644	–	0.0648	0.0683	–	–	–	–	–	0.0411
MGESLFKGPRDYNPISSSICHLTNESDGHTTSLYGIGFGPFIITNKHLFRRNNGTLVVQSLHGVFKVKDTTTLQQHLVDGRDMIIIRMPKDFPPFPQKLKFREPQREERICLVTTNFQTKSMSSMVSDTSCTFPSGDGIFWKHWIQTKDGQCGSPLVSTRDGFIVGIHSASYFTNTNNYFTSVPKNFMELLTNQEAQQWVSGWRLNADSVLWGGHKVFMVKPEEPFQPVKEATQL [N172Y]	0.0635	–	0.0592	0.0492	–	0.0707	0.0675	–	0.0606	–
MGESLFKGPRDYNPISSSICHLTNESDGHTTSLYGIGFGPFIITNKHLFRRNNGTLVVQSLHGVFKVKDTTTLQQHLVDGRDMIIIRMPKDFPPFPQKLKFREPQREERICLVTTNFQTKSMSSMVSDTSCTFPSGDGIFWKHWIQTKDGQCGSPLVSTRDGFIVGIHSASNRTNTNNYFTSVPKNFMELLTNQEAQQWVSGWRLNADSVLWGGHKVFMVKPEEPFQPVKEATQL [F173R]	0.063	–	0.0784	–	–	0.0636	0.0426	0.0572	–	–
MGESLFKGPRDYNPISSSICHLTNESDGHTTSLYGIGFGPFIITNKHLFRRNNGTLVVQSLHGVFKVKDTTTLQQHLVDGRDMIIIRMPKDFPPFPQKLKFREPQREERICLVTTNFQTKSMSSMVSDTSCTFPSGDGIFWKHWIQTKDGQCGSPLVSTRDGFIVGIHSASNFTNTNNYFTLVPKNFMELLTNQEAQQWVSGWRLNADSVLWGGHKVFMVKPEEPFQPVKEATQL [S182L]	0.0482	0.0628	–	–	–	–	0.0568	0.0617	0.0628	0.0534
MGESLFKGPRDYNPISSSICHLTNESDGHTTSLYGIGFGPFIITNKHLFRRNNGTLVVQSLHGVFKVKDTTTLQQHLVDGRDMIIIRMPKDFPPFPQKLKFREPQREERICLVTTNFQTKSMSSMVSDTSCTFPSGDGIFWKHWIQTKDGQCGSPLVSTRDGFIVGIHSASNFTNTNNYFTSVPKQFMELLTNQEAQQWVSGWRLNADSVLWGGHKVFMVKPEEPFQPVKEATQL [N186Q]	0.0693	–	–	0.0796	–	0.0568	0.0546	0.0539	0.093	–
MGESLFKGPRDYNPISSSICHLTNESDGHTTSLYGIGFGPFIITNKHLFRRNNGTLVVQSLHGVFKVKDTTTLQQHLVDGRDMIIIRMPKDFPPFPQKLKFREPQREERICLVTTNFQTKSMSSMVSDTSCTFPSGDGIFWKHWIQTKDGQCGSPLVSTRDGFIVGIHSASNFTNTNNYFTSVPKNLMELLTNQEAQQWVSGWRLNADSVLWGGHKVFMVKPEEPFQPVKEATQL [F187L]	0.0547	0.0562	0.0529	–	0.0747	0.0627	0.0577	0.0659	0.118	–
MGESLFKGPRDYNPISSSICHLTNESDGHTTSLYGIGFGPFIITNKHLFRRNNGTLVVQSLHGVFKVKDTTTLQQHLVDGRDMIIIRMPKDFPPFPQKLKFREPQREERICLVTTNFQTKSMSSMVSDTSCTFPSGDGIFWKHWIQTKDGQCGSPLVSTRDGFIVGIHSASNFTNTNNYFTSVPKNFMECLTNQEAQQWVSGWRLNADSVLWGGHKVFMVKPEEPFQPVKEATQL [L190C]	0.0766	0.0604	0.0627	–	–	–	0.0558	0.0561	0.0999	–
MGESLFKGPRDYNPISSSICHLTNESDGHTTSLYGIGFGPFIITNKHLFRRNNGTLVVQSLHGVFKVKDTTTLQQHLVDGRDMIIIRMPKDFPPFPQKLKFREPQREERICLVTTNFQTKSMSSMVSDTSCTFPSGDGIFWKHWIQTKDGQCGSPLVSTRDGFIVGIHSASNFTNTNNYFTSVPKNFMELLTRQEAQQWVSGWRLNADSVLWGGHKVFMVKPEEPFQPVKEATQL [N193R]	0.0442	–	0.0578	0.0521	–	–	–	–	–	–
MGESLFKGPRDYNPISSSICHLTNESDGHTTSLYGIGFGPFIITNKHLFRRNNGTLVVQSLHGVFKVKDTTTLQQHLVDGRDMIIIRMPKDFPPFPQKLKFREPQREERICLVTTNFQTKSMSSMVSDTSCTFPSGDGIFWKHWIQTKDGQCGSPLVSTRDGFIVGIHSASNFTNTNNYFTSVPKNFMELLTNQGAQQWVSGWRLNADSVLWGGHKVFMVKPEEPFQPVKEATQL [E195G]	0.0489	0.0691	–	0.0743	–	0.0665	0.0624	0.0729	0.0788	–

Same assay, conditions: temperature: 34 °C; time window: 0-4 h after rhamnose induction

Variant	area with substrate ENRYFQS	area with substrate ENSYFQS	area with substrate ENWYFQS	area with substrate ENYYFQS	area with substrate ENFYFQS	area with substrate ENHYFQS	area with substrate ENIYFQS	area with substrate ENKYFQS
MGESLFKGPRDYNPISSSICHLTNESDGHTTSLYGIGFGPFIITNKHLFRRNNGTLVVQSLHGVFKVKDTTTLQQHLVDGRDMIIIRMPKDFPPFPQKLKFREPQREERICLVTTNFQTKSMSSMVSDTSCTFPSGDGIFWKHWIQTKDGQCGSPLVSARDGFIVGIHSASNFTNTNNYFTSVPKNFMELLTNQEAQQWVSGWRLNADSVLWGGHKVFMVKPEEPFQPVKEATQL [T159A]	0.0457	0.0544	0.0462	0.0394	–	–	–	–
MGESLFKGPRDYNPISSSICHLTNESDGHTTSLYGIGFGPFIITNKHLFRRNNGTLVVQSLHGVFKVKDTTTLQQHLVDGRDMIIIRMPKDFPPFPQKLKFREPQREERICLVTTNFQTKSMSSMVSDTSCTFPSGDGIFWKHWIQTKDGQCGSPLVSTRDGFIVGIHSASYFTNTNNYFTSVPKNFMELLTNQEAQQWVSGWRLNADSVLWGGHKVFMVKPEEPFQPVKEATQL [N172Y]	0.0589	–	–	–	–	–	–	–
MGESLFKGPRDYNPISSSICHLTNESDGHTTSLYGIGFGPFIITNKHLFRRNNGTLVVQSLHGVFKVKDTTTLQQHLVDGRDMIIIRMPKDFPPFPQKLKFREPQREERICLVTTNFQTKSMSSMVSDTSCTFPSGDGIFWKHWIQTKDGQCGSPLVSTRDGFIVGIHSASNRTNTNNYFTSVPKNFMELLTNQEAQQWVSGWRLNADSVLWGGHKVFMVKPEEPFQPVKEATQL [F173R]	–	0.0765	–	0.0829	0.102	0.065	–	–
MGESLFKGPRDYNPISSSICHLTNESDGHTTSLYGIGFGPFIITNKHLFRRNNGTLVVQSLHGVFKVKDTTTLQQHLVDGRDMIIIRMPKDFPPFPQKLKFREPQREERICLVTTNFQTKSMSSMVSDTSCTFPSGDGIFWKHWIQTKDGQCGSPLVSTRDGFIVGIHSASNFTNTNNYFTLVPKNFMELLTNQEAQQWVSGWRLNADSVLWGGHKVFMVKPEEPFQPVKEATQL [S182L]	–	–	–	0.068	–	–	–	–
MGESLFKGPRDYNPISSSICHLTNESDGHTTSLYGIGFGPFIITNKHLFRRNNGTLVVQSLHGVFKVKDTTTLQQHLVDGRDMIIIRMPKDFPPFPQKLKFREPQREERICLVTTNFQTKSMSSMVSDTSCTFPSGDGIFWKHWIQTKDGQCGSPLVSTRDGFIVGIHSASNFTNTNNYFTSVPKQFMELLTNQEAQQWVSGWRLNADSVLWGGHKVFMVKPEEPFQPVKEATQL [N186Q]	–	–	–	0.0586	–	–	–	–
MGESLFKGPRDYNPISSSICHLTNESDGHTTSLYGIGFGPFIITNKHLFRRNNGTLVVQSLHGVFKVKDTTTLQQHLVDGRDMIIIRMPKDFPPFPQKLKFREPQREERICLVTTNFQTKSMSSMVSDTSCTFPSGDGIFWKHWIQTKDGQCGSPLVSTRDGFIVGIHSASNFTNTNNYFTSVPKNLMELLTNQEAQQWVSGWRLNADSVLWGGHKVFMVKPEEPFQPVKEATQL [F187L]	0.0696	0.0661	0.0398	0.057	–	0.0537	0.124	0.0606
MGESLFKGPRDYNPISSSICHLTNESDGHTTSLYGIGFGPFIITNKHLFRRNNGTLVVQSLHGVFKVKDTTTLQQHLVDGRDMIIIRMPKDFPPFPQKLKFREPQREERICLVTTNFQTKSMSSMVSDTSCTFPSGDGIFWKHWIQTKDGQCGSPLVSTRDGFIVGIHSASNFTNTNNYFTSVPKNFMECLTNQEAQQWVSGWRLNADSVLWGGHKVFMVKPEEPFQPVKEATQL [L190C]	–	0.0693	–	–	0.06	0.0573	0.102	–
MGESLFKGPRDYNPISSSICHLTNESDGHTTSLYGIGFGPFIITNKHLFRRNNGTLVVQSLHGVFKVKDTTTLQQHLVDGRDMIIIRMPKDFPPFPQKLKFREPQREERICLVTTNFQTKSMSSMVSDTSCTFPSGDGIFWKHWIQTKDGQCGSPLVSTRDGFIVGIHSASNFTNTNNYFTSVPKNFMELLTRQEAQQWVSGWRLNADSVLWGGHKVFMVKPEEPFQPVKEATQL [N193R]	0.059	0.0615	–	–	–	–	–	0.061
MGESLFKGPRDYNPISSSICHLTNESDGHTTSLYGIGFGPFIITNKHLFRRNNGTLVVQSLHGVFKVKDTTTLQQHLVDGRDMIIIRMPKDFPPFPQKLKFREPQREERICLVTTNFQTKSMSSMVSDTSCTFPSGDGIFWKHWIQTKDGQCGSPLVSTRDGFIVGIHSASNFTNTNNYFTSVPKNFMELLTNQGAQQWVSGWRLNADSVLWGGHKVFMVKPEEPFQPVKEATQL [E195G]	–	0.0705	0.0617	0.057	0.0824	–	–	0.0623
